Experimental data from PubChem BioAssay (Tox21).
Inconclusive results, whose numbers are uncertain, are shown with a selection of clear calls. For some of these results: No potency is given beside an inconclusive call; the fits are too rough. The source made the active and inactive calls. Unless noted, the call rests on the fitted dose curve; in most records, active means well fitted curve in the direction sought with a large enough effect in the repeat runs; inconclusive means weak or mixed curves; inactive means no such curve, though single readings can be large; an effect the other way counts as inactive or inconclusive.

Experiments:
[1] = qHTS assay for small molecule agonists of the antioxidant response element (ARE) signaling pathway (AID 743202; active means well fitted activation curve with a large enough effect in the signal ratio in the repeat runs, not every such curve was filed as active; inconclusive means weak or mixed curves, or effect the other way; inactive means no such curve, though single readings can be large or run the other way; the % refers to the signal ratio; further: potency means the concentration at half of the fitted maximal effect); conditions: HepG2 ARE-bla reporter, beta-lactamase FRET, 16 h; activation: at 73.3 µM (top of the series) unless noted
In short: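 Agonist mode reporter screen: HepG2 cells with ARE-controlled beta-lactamase are incubated with test compounds for 16 h at 37 C, and beta-lactamase activity is measured as fluorescence of cleaved B/G FRET substrate.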

[2] = qHTS assay for small molecule activators of the heat shock response signaling pathway (AID 743210; active means well fitted activation curve with a large enough effect in the signal ratio in the repeat runs, with a control signal flat, not every such curve was filed as active; inconclusive means weak or mixed curves; the % refers to the signal ratio;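 further: HeLa cells with beta-lactamase reporter driven by heat shock elements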); conditions: HeLa HSE-bla reporter, beta-lactamase ratio, 5 h; activation: at 62.6 µM (top of the series) unless noted
In short: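 Quantitative high-throughput format using an engineered HeLa line in which heat shock response elements drive beta-lactamase; after 5 h with compound, cells received a B/G FRET substrate and fluorescence was read.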

[3] = qHTS assay to identify small molecule antagonists of the peroxisome proliferator-activated receptor delta (PPARd) signaling pathway - cell viability counter screen (AID 743213); conditions: PPARd-bla HEK293H viability, CellTiter-Glo luminescence, 17 h; viability change, negative = cytotoxic: at 62 µM (top of the series) unless noted; further: nearly all actives have a fitted effect of over 50% in size; further: potency means the concentration at half of the fitted maximal effect
In short: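 Same-well viability: cells pre-incubated 5 h, dosed with compound plus 300 nM L165041, kept 17 h at 37 C, FRET substrate 2 h RT, then CellTiter-Glo 30 min RT and luminescence.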

[4] = target: Peroxisome proliferator-activated receptor delta (Homo sapiens) (UniProt Q03181); experiment: qHTS assay to identify small molecule antagonists of the peroxisome proliferator-activated receptor delta (PPARd) signaling pathway (AID 743215; active means well fitted inhibition curve with a large enough effect in the signal ratio in the repeat runs, not every such curve was filed as active; inconclusive means weak or mixed curves, or effect the other way; inactive means no such curve, though single readings can be large or run the other way; the % refers to the signal ratio;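 further: cells stimulated with agonist L165041 at 300 nM final during compound exposure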; further: potency means the concentration at half of the fitted maximal effect); conditions: HEK293H PPARd-UAS-bla, beta-lactamase FRET ratio, antagonist, 17 h; ratio activity, negative = inhibition: at 62 µM (top of the series) unless noted
Chain of UniProt Q03181 (Q03181 whole entry, looked up): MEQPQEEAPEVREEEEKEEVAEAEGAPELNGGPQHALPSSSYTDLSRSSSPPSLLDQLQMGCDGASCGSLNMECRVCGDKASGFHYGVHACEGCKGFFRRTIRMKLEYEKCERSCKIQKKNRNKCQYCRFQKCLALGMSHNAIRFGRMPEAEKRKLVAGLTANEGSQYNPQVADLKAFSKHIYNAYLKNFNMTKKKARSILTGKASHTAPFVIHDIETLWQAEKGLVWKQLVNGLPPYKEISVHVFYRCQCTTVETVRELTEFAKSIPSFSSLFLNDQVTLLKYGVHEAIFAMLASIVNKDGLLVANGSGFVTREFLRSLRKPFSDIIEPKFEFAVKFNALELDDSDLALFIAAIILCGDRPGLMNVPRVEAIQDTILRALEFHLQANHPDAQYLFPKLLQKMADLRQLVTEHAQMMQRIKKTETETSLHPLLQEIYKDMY
In short: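 With L165041 present at 300 nM final, compounds were incubated 17 h at 37 C on PPARd UAS-bla HEK293H cells. A FRET-based beta-lactamase substrate was then applied for 2 h at room temperature and fluorescence intensity recorded.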

[5] = target: Bile acid receptor (Homo sapiens) (UniProt Q96RI1); experiment: qHTS assay to identify small molecule antagonists of the farnesoid-X-receptor (FXR) signaling pathway (AID 743217; active means well fitted inhibition curve with a large enough effect in the signal ratio in the repeat runs, not every such curve was filed as active; inconclusive means weak or mixed curves, or effect the other way; inactive means no such curve, though single readings can be large or run the other way; the % refers to the signal ratio; further: potency means the concentration at half of the fitted maximal effect); conditions: HEK293T FXR-UAS-bla, beta-lactamase ratio, CDCA-stimulated, 16 h; activity change, negative = inhibition: at 62.6 µM (top of the series) unless noted
Chain of UniProt Q96RI1 (Q96RI1 whole entry, looked up): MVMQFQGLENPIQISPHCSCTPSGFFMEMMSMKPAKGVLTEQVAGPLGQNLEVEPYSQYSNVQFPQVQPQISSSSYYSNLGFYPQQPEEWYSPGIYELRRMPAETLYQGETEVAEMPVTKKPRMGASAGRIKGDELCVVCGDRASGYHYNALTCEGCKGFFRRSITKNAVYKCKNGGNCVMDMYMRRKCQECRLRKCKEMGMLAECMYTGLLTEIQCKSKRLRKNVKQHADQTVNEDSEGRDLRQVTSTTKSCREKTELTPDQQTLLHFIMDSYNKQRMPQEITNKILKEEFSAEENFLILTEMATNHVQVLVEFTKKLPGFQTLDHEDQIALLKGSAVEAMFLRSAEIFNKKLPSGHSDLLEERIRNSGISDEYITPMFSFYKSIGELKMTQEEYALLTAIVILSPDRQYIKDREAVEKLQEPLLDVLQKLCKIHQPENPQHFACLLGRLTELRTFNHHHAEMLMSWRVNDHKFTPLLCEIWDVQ
In short: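 In this cell-based antagonist screen, inhibition of CDCA-driven (50 uM final) UAS-beta-lactamase expression in HEK 293T cells was measured by FRET fluorescence following 16 h compound exposure at 37 °C.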

[6] = target: Vitamin D3 receptor (Homo sapiens) (UniProt P11473); experiment: qHTS assay to identify small molecule antagonists of the vitamin D receptor (VDR) signaling pathway (AID 743223; active means well fitted inhibition curve with a large enough effect in the signal ratio in the repeat runs, not every such curve was filed as active; inconclusive means weak or mixed curves, or effect the other way; inactive means no such curve, though single readings can be large or run the other way; the % refers to the signal ratio; further: potency means the concentration at half of the fitted maximal effect); conditions: VDR-UAS-bla HEK293T, beta-lactamase FRET ratio, 16 h; activity change, negative = inhibition: at 61 µM (top of the series) unless noted
Chain of UniProt P11473 (P11473 whole entry, looked up): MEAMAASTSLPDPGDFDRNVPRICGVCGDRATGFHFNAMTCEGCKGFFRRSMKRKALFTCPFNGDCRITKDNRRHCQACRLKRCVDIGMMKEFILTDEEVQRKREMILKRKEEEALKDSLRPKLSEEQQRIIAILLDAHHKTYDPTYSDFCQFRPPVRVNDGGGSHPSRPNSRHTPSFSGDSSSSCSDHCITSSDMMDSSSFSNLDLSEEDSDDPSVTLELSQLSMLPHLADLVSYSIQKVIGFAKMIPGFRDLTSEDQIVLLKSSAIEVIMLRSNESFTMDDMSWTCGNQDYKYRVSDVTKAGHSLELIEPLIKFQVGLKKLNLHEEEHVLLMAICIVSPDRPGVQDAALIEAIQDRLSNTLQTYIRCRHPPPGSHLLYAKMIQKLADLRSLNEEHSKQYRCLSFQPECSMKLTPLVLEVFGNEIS
In short: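 After VDR-bla cells are plated and left 4 h at 37C, DMSO-dissolved compounds and 3 nM (final) calcitriol agonist are added. Incubation continues 16 h at 37C; FRET beta-lactamase substrate then develops 2 h at room temperature.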

[7] = target: Nuclear receptor ROR-gamma (Homo sapiens) (UniProt P51449); experiment: qHTS assay to identify small molecule antagonists of the retinoid-related orphan receptor gamma (ROR-gamma) signaling pathway (AID 1159521; further: nearly all actives have a fitted effect of over 50% in size; further: potency means the concentration at half of the fitted maximal effect;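 on activity change, negative = inhibition: CHO cells with doxycycline inducible ROR-gamma driving an RORE luciferase reporter; top concentration of the series differs between compounds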)
In short: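 Readout: ONE-Glo luciferase luminescence, 30 min at room temperature. System: Tet-on RORγ CHO, RORE-LUC. Sequence: compound 2 h, doxycycline 1 uM final, 16 h at 37 C.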

[8] = target: Peroxisome proliferator-activated receptor delta (Homo sapiens) (UniProt Q03181); experiment: qHTS assay to identify small molecule agonists of the peroxisome proliferator-activated receptor delta (PPARd) signaling pathway (AID 743212; calls by dose curve; further: potency means the concentration at half of the fitted maximal effect); conditions: HEK293H PPARd-UAS-bla, beta-lactamase FRET ratio, 17 h; activation: at 62.6 µM (top of the series) unless noted
In short: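 Quantitative high-throughput agonist screen in a HEK293H beta-lactamase reporter line under UAS control. Compounds in DMSO, at 37 C. Fluorescence read after 2 h with FRET substrate at room temperature.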

[9] = qHTS assay to identify small molecule agonists of the peroxisome proliferator-activated receptor delta (PPARd) signaling pathway - cell viability counter screen (AID 743211); conditions: PPARd-bla HEK293H viability, CellTiter-Glo luminescence, 17 h; activity change, negative = cytotoxicity: at 62.6 µM (top of the series); further: nearly all actives have a fitted effect of over 55% in size; further: potency means the concentration at half of the fitted maximal effect
In short: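 Multiplexed format: after the 2 h room-temperature LiveBLAzer B/G FRET step, CellTiter-Glo was added to the same wells. Luminescence after 30 min gave cell viability; compound exposure was 17 h at 37C.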

[10] = qHTS assay to identify small molecule agonists of the farnesoid-X-receptor (FXR) signaling pathway - cell viability counter screen (AID 743218); conditions: FXR-bla HEK293T viability, CellTiter-Glo luminescence, 16 h; viability change, negative = cytotoxic: at 62.6 µM (top of the series) unless noted; further: nearly all actives have a fitted effect of over 45% in size; further: potency means the concentration at half of the fitted maximal effect
In short: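 After 16 h at 37 C with test compounds, FXR-bla HEK 293T cells were given LiveBLAzer B/G substrate for 2 h at RT and then CellTiter-Glo; luminescence was taken after 30 min.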

[11] = qHTS assay to identify small molecule agonists of the vitamin D receptor (VDR) signaling pathway - cell viability counter screen (AID 743224); conditions: VDR-bla HEK293T viability, CellTiter-Glo luminescence, 16 h; activity change, negative = cytotoxicity: at 62.6 µM (top of the series); further: nearly all actives have a fitted effect of over 50% in size; further: potency means the concentration at half of the fitted maximal effect
In short: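 Here cell health was gauged by luminescent ATP detection (CellTiter-Glo, 30 min RT) in VDR-bla cells that had been incubated with test compounds for 16 h at 37C and 5% CO2.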

[12] = qHTS assay to identify small molecule antagonists of the vitamin D receptor (VDR) signaling pathway - cell viability counter screen (AID 743225); conditions: VDR-bla HEK293T viability, CellTiter-Glo luminescence, 16 h; viability change, negative = cytotoxic: at 61 µM (top of the series) unless noted; further: nearly all actives have a fitted effect of over 50% in size; further: potency means the concentration at half of the fitted maximal effect
In short: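 Cytotoxicity toward the VDR-bla HEK 293T line was scored by ATP-based CellTiter-Glo luminescence, read in the wells already used for the beta-lactamase readout after 16 h compound treatment under 3 nM 1-alpha,25-dihydroxyvitamin D3 stimulation.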

[13] = target: Bile acid receptor (Homo sapiens) (UniProt Q96RI1); experiment: qHTS assay to identify small molecule agonists of the farnesoid-X-receptor (FXR) signaling pathway (AID 743220; active means well fitted activation curve with a large enough effect in the signal ratio in the repeat runs, not every such curve was filed as active; inconclusive means weak or mixed curves, or effect the other way; the % refers to the signal ratio); conditions: HEK293T FXR-UAS-bla, beta-lactamase FRET ratio, 16 h; activation: at 62.6 µM (top of the series)
In short: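 Beta-lactamase reporter under UAS control in GeneBLAzer FXR HEK 293T cells (5000/well) measured with LiveBLAzer FRET substrate after 2 h at room temperature. Compound exposure lasted 16 h at 37C.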

[14] = qHTS assay to identify small molecule antagonists of the farnesoid-X-receptor (FXR) signaling pathway - cell viability counter screen (AID 743221; active means well fitted cell-killing curve with a large enough effect in the repeat runs, not every such curve was filed as active; inconclusive means weak or mixed curves, or effect the other way; inactive means no such curve, though single readings can be large or run the other way; further: nearly all actives have a fitted effect of over 50% in size; further: potency means the concentration at half of the fitted maximal effect); conditions: FXR-bla HEK293T viability, CellTiter-Glo luminescence, 16 h; activity change, negative = cytotoxicity: at 62.6 µM (top of the series) unless noted
In short: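 CellTiter-Glo, 30 min RT, luminescence; same wells as the LiveBLAzer FRET read. Cells: FXR-UAS-bla HEK 293T. Treatment: compound with chenodeoxycholic acid 50 uM final, 16 h at 37 C.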

[15] = target: Vitamin D3 receptor (Homo sapiens) (UniProt P11473); experiment: qHTS assay to identify small molecule agonists of the vitamin D receptor (VDR) signaling pathway (AID 743222; calls by dose curve); conditions: HEK293T VDR-UAS-bla, beta-lactamase FRET ratio, 16 h; activation: at 63.5 µM (top of the series) unless noted
In short: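 VDR-bla cells were seeded, left 4 h, treated with compounds in DMSO for 16 h, incubated 2 h at RT with B/G FRET substrate, and read for fluorescence.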
On the % scale 0 is the no-effect control and ±100 the full control effect; tags describe the fitted curve by direction and shape or compound fluorescence and quenching.

Cc1cccc(C)c1NC(=O)CN(CC(=O)O)CC(=O)O
Potency [1]: inactive | Potency [2]: inactive | Potency [3]: inconclusive [cytotoxic, single point] | Potency [4]: inactive | Potency [5]: inactive | activity change, negative = inhibition [6]: inconclusive: -7.44% | Potency [7]: inconclusive [inhibitor, single point]

CCCOc1ccc(S(=O)(=O)N2CCN(CC)CC2)cc1-c1nc2c(CC)n(Cc3ccccn3)nc2c(=O)[nH]1
activation [1]: inconclusive: 13.1% | Potency [8]: inconclusive [rising, full curve, poor fit] | Potency [4]: inconclusive [rising, partial curve, poor fit] | activity change, negative = inhibition [6]: inconclusive: 11.8% | Potency [7]: inconclusive [inhibitor, partial curve, poor fit]

CCC(Cc1ccccc1)(C(=O)c1ccc(N2CCOCC2)cc1)N(C)C (stereo unspecified)
Potency [1]: inconclusive [rising, partial curve] | Potency [9]: inactive | Potency [5]: inconclusive [activator, single point] | Potency [10]: inconclusive [rising, full curve, poor fit] | activity change, negative = inhibition [6]: inconclusive: 8.25% | Potency [11]: inconclusive [cytotoxic, single point] | Potency [12]: inconclusive [cytotoxic, partial curve] | Potency [7]: inconclusive [inhibitor, partial curve]

CCCCC1CCCCC(=O)O1 (stereo unspecified)
activation [1]: inconclusive: -14.6% | Potency [8]: inconclusive [rising, single point] | Potency [11]: inactive | Potency [12]: inactive | Potency [7]: inactive

CCCNC(C)(C)COC(=O)c1ccccc1
Potency [1]: inactive | Potency [3]: inactive | Potency [7]: inconclusive [inhibitor, single point]

CC(Cl)C(Cl)Cl (stereo unspecified)
Potency [1]: inactive | Potency [8]: inactive | Potency [7]: inconclusive [inhibitor, partial curve, poor fit]

CCCCCCCCCCCCCCCCCCCl
activation [1]: inactive: -2.23% [at 8.36 µM] | activation [2]: inactive: -1.98% [at 5.95 µM] | viability change, negative = cytotoxic [3]: inactive: -29.3% [at 6.26 µM] | Potency [10]: inconclusive [rising, partial curve, poor fit] | activity change, negative = inhibition [7]: inactive: 0.775% [at 8.39 µM]

COc1cc2c(N3CCN(C(=O)Nc4ccc(OC(C)C)cc4)CC3)ncnc2cc1OCCCN1CCCCC1
Potency [1]: inconclusive [rising, partial curve, poor fit] | Potency [9]: inconclusive [cytotoxic] | Potency [3]: inconclusive [cytotoxic, partial curve] | activity change, negative = inhibition [6]: inconclusive: 14.6% | Potency [7]: inconclusive [inhibitor]

COC(=O)C1=C(C)NC(C)=C(C(=O)OC(C)C)C1c1cccc2nonc12 (stereo unspecified)
Potency [1]: inactive | Potency [2]: inactive | activity change, negative = inhibition [5]: inconclusive: -30.1% | activation [13]: inconclusive: 5.32% | Potency [6]: inconclusive [activator, single point] | Potency [7]: inactive

CCN(CC)CCc1nc(-c2ccccc2)no1
Potency [1]: inconclusive [falling, partial curve, poor fit] | Potency [3]: inactive | Potency [7]: inactive

CN(C)CCOCCO
Potency [1]: inactive | Potency [5]: inactive | Potency [10]: inactive | Potency [13]: inactive | Potency [12]: inconclusive [cytotoxic, full curve, poor fit] | Potency [7]: inactive

C[N+](C)(C)CCO
activation [1]: inconclusive: 6.82% | Potency [3]: inactive | Potency [14]: inconclusive [falling, full curve, poor fit] | Potency [12]: inconclusive [cytotoxic, single point] | Potency [7]: inconclusive [inhibitor, partial curve, poor fit]

O=C(c1ccc(Cl)cc1)c1ccc(Cl)cc1
Potency [1]: inactive | Potency [15]: inactive | Potency [7]: inactive

Cn1cnc2c(F)c(Nc3ccc(Br)cc3Cl)c(C(=O)NOCCO)cc21
Potency [1]: inconclusive [rising, full curve, poor fit] | Potency [14]: inactive | Potency [7]: inconclusive [inhibitor]

Oc1ccc(Nc2ccccc2)cc1
Potency [1]: active: 27.3 µM | Potency [3]: inconclusive [cytotoxic, single point] | ratio activity, negative = inhibition [4]: inconclusive: -47.9% | Potency [5]: inactive | Potency [10]: inconclusive [cytotoxic, partial curve, poor fit] | activation [13]: inconclusive: 0.173% | Potency [6]: inconclusive [rising, partial curve] | Potency [12]: inconclusive [cytotoxic, full curve, poor fit] | Potency [7]: inconclusive [inhibitor, single point]
